# Biological target: the molecule itself
# Test: native gel or EMSA; BN-PAGE (8% bis-tris gel, pH 7.0, on ice) of whole-cell lysates of transfected HEK293 cells in 1% Triton X-100 BN lysis buffer, then immunoblot (anti-AQP4 or anti-GFP) and densitometry; self-association: tetramer, dimer, monomer bands
Protein,stoichiometry N,percent of the protein as dimers [%]
"AQP4 TM2 compound mutant (L72A/L79A), C-terminal GFP fusion (natural protein, human, aquaporin-4 (AQP4), human cDNA in pDEST47; M1 isoform (323 residues); source: HEK293, transiently transfected, in Triton X-100 lysate; not shown: GFP, C-terminal, kept) MSDRPTARRWGKCGPLCTRENIMVAFKGVWTQAFWKAVTAEFLAMLIFVLLSLGSTINWGGTEKPLPVDMVAISLCFGASIATMVQCFGHISGGHINPAVTVAMVCTRKISIAKSVFYIAAQCLGAIIGAGILYLVTPPSVVGGLGVTMVHGNLTAGHGLLVELIITFQLVFTIFASCDSKRTDVTGSIALAIGFSVAIGHLFAINYTGASMNPARSFGPAVIMGNWENHWIYWVGPIIGAVLAGGLYEYVFCPDV[… about 60 residues …]",4,–
"AQP4 L161A, C-terminal GFP fusion (natural protein, human, aquaporin-4 (AQP4), human cDNA in pDEST47; M1 isoform (323 residues); source: HEK293, transiently transfected, in Triton X-100 lysate; not shown: GFP, C-terminal, kept) MSDRPTARRWGKCGPLCTRENIMVAFKGVWTQAFWKAVTAEFLAMLIFVLLSLGSTINWGGTEKPLPVDMVLISLCFGLSIATMVQCFGHISGGHINPAVTVAMVCTRKISIAKSVFYIAAQCLGAIIGAGILYLVTPPSVVGGLGVTMVHGNLTAGHGLAVELIITFQLVFTIFASCDSKRTDVTGSIALAIGFSVAIGHLFAINYTGASMNPARSFGPAVIMGNWENHWIYWVGPIIGAVLAGGLYEYVFCPDV[… about 60 residues …]",4,–
"AQP4 I165A, C-terminal GFP fusion (natural protein, human, aquaporin-4 (AQP4), human cDNA in pDEST47; M1 isoform (323 residues); source: HEK293, transiently transfected, in Triton X-100 lysate; not shown: GFP, C-terminal, kept) MSDRPTARRWGKCGPLCTRENIMVAFKGVWTQAFWKAVTAEFLAMLIFVLLSLGSTINWGGTEKPLPVDMVLISLCFGLSIATMVQCFGHISGGHINPAVTVAMVCTRKISIAKSVFYIAAQCLGAIIGAGILYLVTPPSVVGGLGVTMVHGNLTAGHGLLVELAITFQLVFTIFASCDSKRTDVTGSIALAIGFSVAIGHLFAINYTGASMNPARSFGPAVIMGNWENHWIYWVGPIIGAVLAGGLYEYVFCPDV[… about 60 residues …]",4,–
"AQP4 TM4 compound mutant (L161A/I165A), C-terminal GFP fusion (natural protein, human, aquaporin-4 (AQP4), human cDNA in pDEST47; M1 isoform (323 residues); source: HEK293, transiently transfected, in Triton X-100 lysate; not shown: GFP, C-terminal, kept) MSDRPTARRWGKCGPLCTRENIMVAFKGVWTQAFWKAVTAEFLAMLIFVLLSLGSTINWGGTEKPLPVDMVLISLCFGLSIATMVQCFGHISGGHINPAVTVAMVCTRKISIAKSVFYIAAQCLGAIIGAGILYLVTPPSVVGGLGVTMVHGNLTAGHGLAVELAITFQLVFTIFASCDSKRTDVTGSIALAIGFSVAIGHLFAINYTGASMNPARSFGPAVIMGNWENHWIYWVGPIIGAVLAGGLYEYVFCPDV[… about 60 residues …]",4,–
"AQP4 I189A, C-terminal GFP fusion (natural protein, human, aquaporin-4 (AQP4), human cDNA in pDEST47; M1 isoform (323 residues); source: HEK293, transiently transfected, in Triton X-100 lysate; not shown: GFP, C-terminal, kept) MSDRPTARRWGKCGPLCTRENIMVAFKGVWTQAFWKAVTAEFLAMLIFVLLSLGSTINWGGTEKPLPVDMVLISLCFGLSIATMVQCFGHISGGHINPAVTVAMVCTRKISIAKSVFYIAAQCLGAIIGAGILYLVTPPSVVGGLGVTMVHGNLTAGHGLLVELIITFQLVFTIFASCDSKRTDVTGSAALAIGFSVAIGHLFAINYTGASMNPARSFGPAVIMGNWENHWIYWVGPIIGAVLAGGLYEYVFCPDV[… about 60 residues …]",4,–
"AQP4 I199A, C-terminal GFP fusion (natural protein, human, aquaporin-4 (AQP4), human cDNA in pDEST47; M1 isoform (323 residues); source: HEK293, transiently transfected, in Triton X-100 lysate; not shown: GFP, C-terminal, kept) MSDRPTARRWGKCGPLCTRENIMVAFKGVWTQAFWKAVTAEFLAMLIFVLLSLGSTINWGGTEKPLPVDMVLISLCFGLSIATMVQCFGHISGGHINPAVTVAMVCTRKISIAKSVFYIAAQCLGAIIGAGILYLVTPPSVVGGLGVTMVHGNLTAGHGLLVELIITFQLVFTIFASCDSKRTDVTGSIALAIGFSVAAGHLFAINYTGASMNPARSFGPAVIMGNWENHWIYWVGPIIGAVLAGGLYEYVFCPDV[… about 60 residues …]",4,–
"AQP4 F203A, C-terminal GFP fusion (natural protein, human, aquaporin-4 (AQP4), human cDNA in pDEST47; M1 isoform (323 residues); source: HEK293, transiently transfected, in Triton X-100 lysate; not shown: GFP, C-terminal, kept) MSDRPTARRWGKCGPLCTRENIMVAFKGVWTQAFWKAVTAEFLAMLIFVLLSLGSTINWGGTEKPLPVDMVLISLCFGLSIATMVQCFGHISGGHINPAVTVAMVCTRKISIAKSVFYIAAQCLGAIIGAGILYLVTPPSVVGGLGVTMVHGNLTAGHGLLVELIITFQLVFTIFASCDSKRTDVTGSIALAIGFSVAIGHLAAINYTGASMNPARSFGPAVIMGNWENHWIYWVGPIIGAVLAGGLYEYVFCPDV[… about 60 residues …]",4,–
"AQP4 Q86A, C-terminal GFP fusion (natural protein, human, aquaporin-4 (AQP4), human cDNA in pDEST47; M1 isoform (323 residues); source: HEK293, transiently transfected, in Triton X-100 lysate; not shown: GFP, C-terminal, kept) MSDRPTARRWGKCGPLCTRENIMVAFKGVWTQAFWKAVTAEFLAMLIFVLLSLGSTINWGGTEKPLPVDMVLISLCFGLSIATMVACFGHISGGHINPAVTVAMVCTRKISIAKSVFYIAAQCLGAIIGAGILYLVTPPSVVGGLGVTMVHGNLTAGHGLLVELIITFQLVFTIFASCDSKRTDVTGSIALAIGFSVAIGHLFAINYTGASMNPARSFGPAVIMGNWENHWIYWVGPIIGAVLAGGLYEYVFCPDV[… about 60 residues …]",4,–
"AQP4 H90A, C-terminal GFP fusion (natural protein, human, aquaporin-4 (AQP4), human cDNA in pDEST47; M1 isoform (323 residues); source: HEK293, transiently transfected, in Triton X-100 lysate; not shown: GFP, C-terminal, kept) MSDRPTARRWGKCGPLCTRENIMVAFKGVWTQAFWKAVTAEFLAMLIFVLLSLGSTINWGGTEKPLPVDMVLISLCFGLSIATMVQCFGAISGGHINPAVTVAMVCTRKISIAKSVFYIAAQCLGAIIGAGILYLVTPPSVVGGLGVTMVHGNLTAGHGLLVELIITFQLVFTIFASCDSKRTDVTGSIALAIGFSVAIGHLFAINYTGASMNPARSFGPAVIMGNWENHWIYWVGPIIGAVLAGGLYEYVFCPDV[… about 60 residues …]",4,–
"AQP4 D179A, C-terminal GFP fusion (natural protein, human, aquaporin-4 (AQP4), human cDNA in pDEST47; M1 isoform (323 residues); source: HEK293, transiently transfected, in Triton X-100 lysate; not shown: GFP, C-terminal, kept) MSDRPTARRWGKCGPLCTRENIMVAFKGVWTQAFWKAVTAEFLAMLIFVLLSLGSTINWGGTEKPLPVDMVLISLCFGLSIATMVQCFGHISGGHINPAVTVAMVCTRKISIAKSVFYIAAQCLGAIIGAGILYLVTPPSVVGGLGVTMVHGNLTAGHGLLVELIITFQLVFTIFASCASKRTDVTGSIALAIGFSVAIGHLFAINYTGASMNPARSFGPAVIMGNWENHWIYWVGPIIGAVLAGGLYEYVFCPDV[… about 60 residues …]",–,5
"AQP4 S180A, C-terminal GFP fusion (natural protein, human, aquaporin-4 (AQP4), human cDNA in pDEST47; M1 isoform (323 residues); source: HEK293, transiently transfected, in Triton X-100 lysate; not shown: GFP, C-terminal, kept) MSDRPTARRWGKCGPLCTRENIMVAFKGVWTQAFWKAVTAEFLAMLIFVLLSLGSTINWGGTEKPLPVDMVLISLCFGLSIATMVQCFGHISGGHINPAVTVAMVCTRKISIAKSVFYIAAQCLGAIIGAGILYLVTPPSVVGGLGVTMVHGNLTAGHGLLVELIITFQLVFTIFASCDAKRTDVTGSIALAIGFSVAIGHLFAINYTGASMNPARSFGPAVIMGNWENHWIYWVGPIIGAVLAGGLYEYVFCPDV[… about 60 residues …]",4,–
"AQP4 S180D (phosphomimetic), C-terminal GFP fusion (natural protein, human, aquaporin-4 (AQP4), human cDNA in pDEST47; M1 isoform (323 residues); source: HEK293, transiently transfected, in Triton X-100 lysate; not shown: GFP, C-terminal, kept) MSDRPTARRWGKCGPLCTRENIMVAFKGVWTQAFWKAVTAEFLAMLIFVLLSLGSTINWGGTEKPLPVDMVLISLCFGLSIATMVQCFGHISGGHINPAVTVAMVCTRKISIAKSVFYIAAQCLGAIIGAGILYLVTPPSVVGGLGVTMVHGNLTAGHGLLVELIITFQLVFTIFASCDDKRTDVTGSIALAIGFSVAIGHLFAINYTGASMNPARSFGPAVIMGNWENHWIYWVGPIIGAVLAGGLYEYVFCPDV[… about 60 residues …]",4,–
"AQP4 K181A, C-terminal GFP fusion (natural protein, human, aquaporin-4 (AQP4), human cDNA in pDEST47; M1 isoform (323 residues); source: HEK293, transiently transfected, in Triton X-100 lysate; not shown: GFP, C-terminal, kept) MSDRPTARRWGKCGPLCTRENIMVAFKGVWTQAFWKAVTAEFLAMLIFVLLSLGSTINWGGTEKPLPVDMVLISLCFGLSIATMVQCFGHISGGHINPAVTVAMVCTRKISIAKSVFYIAAQCLGAIIGAGILYLVTPPSVVGGLGVTMVHGNLTAGHGLLVELIITFQLVFTIFASCDSARTDVTGSIALAIGFSVAIGHLFAINYTGASMNPARSFGPAVIMGNWENHWIYWVGPIIGAVLAGGLYEYVFCPDV[… about 60 residues …]",4,–
"AQP4 R182A, C-terminal GFP fusion (natural protein, human, aquaporin-4 (AQP4), human cDNA in pDEST47; M1 isoform (323 residues); source: HEK293, transiently transfected, in Triton X-100 lysate; not shown: GFP, C-terminal, kept) MSDRPTARRWGKCGPLCTRENIMVAFKGVWTQAFWKAVTAEFLAMLIFVLLSLGSTINWGGTEKPLPVDMVLISLCFGLSIATMVQCFGHISGGHINPAVTVAMVCTRKISIAKSVFYIAAQCLGAIIGAGILYLVTPPSVVGGLGVTMVHGNLTAGHGLLVELIITFQLVFTIFASCDSKATDVTGSIALAIGFSVAIGHLFAINYTGASMNPARSFGPAVIMGNWENHWIYWVGPIIGAVLAGGLYEYVFCPDV[… about 60 residues …]",4,–
"AQP4 T183A, C-terminal GFP fusion (natural protein, human, aquaporin-4 (AQP4), human cDNA in pDEST47; M1 isoform (323 residues); source: HEK293, transiently transfected, in Triton X-100 lysate; not shown: GFP, C-terminal, kept) MSDRPTARRWGKCGPLCTRENIMVAFKGVWTQAFWKAVTAEFLAMLIFVLLSLGSTINWGGTEKPLPVDMVLISLCFGLSIATMVQCFGHISGGHINPAVTVAMVCTRKISIAKSVFYIAAQCLGAIIGAGILYLVTPPSVVGGLGVTMVHGNLTAGHGLLVELIITFQLVFTIFASCDSKRADVTGSIALAIGFSVAIGHLFAINYTGASMNPARSFGPAVIMGNWENHWIYWVGPIIGAVLAGGLYEYVFCPDV[… about 60 residues …]",4,–
"AQP4 loop D1 compound mutant (D179A/S180A/K181A/R182A/T183A), C-terminal GFP fusion (natural protein, human, aquaporin-4 (AQP4), human cDNA in pDEST47; M1 isoform (323 residues); 179-DSKRT-183 changed to alanines; source: HEK293, transiently transfected, in Triton X-100 lysate; not shown: GFP, C-terminal, kept) MSDRPTARRWGKCGPLCTRENIMVAFKGVWTQAFWKAVTAEFLAMLIFVLLSLGSTINWGGTEKPLPVDMVLISLCFGLSIATMVQCFGHISGGHINPAVTVAMVCTRKISIAKSVFYIAAQCLGAIIGAGILYLVTPPSVVGGLGVTMVHGNLTAGHGLLVELIITFQLVFTIFASCAAAAADVTGSIALAIGFSVAIGHLFAINYTGASMNPARSFGPAVIMGNWENHWIYWVGPIIGAVLAGGLYEYVFCPDV[… about 60 residues …]",–,27
"AQP4 I47A, C-terminal GFP fusion (natural protein, human, aquaporin-4 (AQP4), human cDNA in pDEST47; M1 isoform (323 residues); source: HEK293, transiently transfected, in Triton X-100 lysate; not shown: GFP, C-terminal, kept) MSDRPTARRWGKCGPLCTRENIMVAFKGVWTQAFWKAVTAEFLAMLAFVLLSLGSTINWGGTEKPLPVDMVLISLCFGLSIATMVQCFGHISGGHINPAVTVAMVCTRKISIAKSVFYIAAQCLGAIIGAGILYLVTPPSVVGGLGVTMVHGNLTAGHGLLVELIITFQLVFTIFASCDSKRTDVTGSIALAIGFSVAIGHLFAINYTGASMNPARSFGPAVIMGNWENHWIYWVGPIIGAVLAGGLYEYVFCPDV[… about 60 residues …]",4,–
"AQP4 D184A, C-terminal GFP fusion (natural protein, human, aquaporin-4 (AQP4), human cDNA in pDEST47; M1 isoform (323 residues); source: HEK293, transiently transfected, in Triton X-100 lysate; not shown: GFP, C-terminal, kept) MSDRPTARRWGKCGPLCTRENIMVAFKGVWTQAFWKAVTAEFLAMLIFVLLSLGSTINWGGTEKPLPVDMVLISLCFGLSIATMVQCFGHISGGHINPAVTVAMVCTRKISIAKSVFYIAAQCLGAIIGAGILYLVTPPSVVGGLGVTMVHGNLTAGHGLLVELIITFQLVFTIFASCDSKRTAVTGSIALAIGFSVAIGHLFAINYTGASMNPARSFGPAVIMGNWENHWIYWVGPIIGAVLAGGLYEYVFCPDV[… about 60 residues …]",4,–

# Reference: PMC4807272, “Structural Determinants of Oligomerization of the Aquaporin-4 Channel*” (The Journal of Biological Chemistry, 2016)
